The text below walks through data of article PMC6919601, “Identification of Plasmodium dipeptidyl aminopeptidase allosteric inhibitors by high throughput screening” (PLoS ONE, 2019).

Out of some 110,000 compounds screened, about 230 (0.21%) showed an effect of 50% or more. The list shows a part of the results.
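Further: 30 min substrate incubation versus DMSO and 10 µM JCP410 controls.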

The target in this assay is DPAP1 (Plasmodium falciparum, UniProt Q8IIJ9). Kind of assay: primary screen, percent inhibition; read by cleavage of a fluorogenic dipeptide substrate; higher = more effect of the substance. The arrangement: species or system P. falciparum D10 trophozoite lysates; single well.
DPAP1, sequence (Q8IIJ9 whole entry, looked up): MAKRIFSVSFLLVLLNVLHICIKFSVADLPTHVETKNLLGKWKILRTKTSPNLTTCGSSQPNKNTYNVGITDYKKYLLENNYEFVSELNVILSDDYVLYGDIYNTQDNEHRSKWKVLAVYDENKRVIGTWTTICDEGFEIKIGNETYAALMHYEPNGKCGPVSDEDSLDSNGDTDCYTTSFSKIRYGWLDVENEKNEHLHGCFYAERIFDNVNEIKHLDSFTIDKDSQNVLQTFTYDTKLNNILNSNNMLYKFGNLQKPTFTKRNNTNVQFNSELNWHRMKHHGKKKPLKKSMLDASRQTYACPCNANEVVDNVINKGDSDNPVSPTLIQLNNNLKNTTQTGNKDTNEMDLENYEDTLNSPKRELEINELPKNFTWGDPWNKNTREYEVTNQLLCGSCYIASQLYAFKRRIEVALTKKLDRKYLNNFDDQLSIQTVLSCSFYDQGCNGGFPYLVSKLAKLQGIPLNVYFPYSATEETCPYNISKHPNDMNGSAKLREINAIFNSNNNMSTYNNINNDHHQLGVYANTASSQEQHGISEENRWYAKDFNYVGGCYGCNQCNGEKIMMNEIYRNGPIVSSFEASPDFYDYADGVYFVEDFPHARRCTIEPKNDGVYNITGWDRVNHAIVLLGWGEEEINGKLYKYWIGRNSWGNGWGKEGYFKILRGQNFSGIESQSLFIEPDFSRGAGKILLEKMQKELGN
`Cn1nc(C(=O)N2CCN(c3ccccn3)CC2)c2c1-c1ccccc1S(=O)(=O)C2`: the “% Inhibition @ 10 uM” value worked out at 3.44%.

`COCCN1CNc2c(c(=O)n(C)c(=O)n2C)C1`: the “% Inhibition @ 10 uM” value is on record as -1.72%.

As for `O=C1C(Cl)=C(Oc2ccccc2)C(=O)N1c1ccccc1`, the “% Inhibition @ 10 uM” value is recorded as 4.28%.

`CC1=C(C(=O)Nc2ccc(C)cn2)C(c2cccc(Cl)c2)C2=C(O)CC(C)(C)CC2=N1` (centres unmarked): the “% Inhibition @ 10 uM” value is listed as -3.9%.

With `c1cnc2nc(-c3ccsc3)c(NC3CCCCC3)n2c1`, the “% Inhibition @ 10 uM” value is recorded as -2.16%.

As for `COCCN1C(=O)c2ccccc2C(C(=O)NCc2ccco2)C1c1ccc(F)cc1` (centres unmarked), the “% Inhibition @ 10 uM” value is recorded as 3.61%.

On to `Cc1ccc(C2=NS(=O)(=O)N(C)C(C(=O)NCCc3ccccc3)=C2)cc1`, for which the “% Inhibition @ 10 uM” value is reported as -4.68%.

As for `COc1ccc(CN(C(=O)c2ccc(OCC(C)C)cc2)C2CCS(=O)(=O)C2)cc1OC` (centres unmarked), the “% Inhibition @ 10 uM” value is reported as -3.13%.

In the case of `CC1CCCCC1NC(=O)C(Cc1ccccc1)NS(=O)(=O)c1cccs1` (centres unmarked), the “% Inhibition @ 10 uM” value is -4.16%.

Turning to `CCC(C(=O)NC1CCCCC1C)n1nc(C)c2sc3ccccc3c2c1=O` (centres unmarked), the “% Inhibition @ 10 uM” value was -1.97%.

Regarding `COc1cccc(C2c3[nH]c4ccccc4c3CC3C(=O)N(C)C(=S)N32)c1` (centres unmarked), the “% Inhibition @ 10 uM” value is reported as 6.43%.

Regarding `Cc1ccccc1NC(=O)COc1ccccc1`, the “% Inhibition @ 10 uM” value came to 4.75%.

Turning to `O=C1/C(=C/c2ccc(Br)cc2)Sc2ccccc21`, the “% Inhibition @ 10 uM” value worked out at 2.45%.

Regarding `O=C(CSc1nc2ccccc2o1)Nc1cc(Cl)cc(Cl)c1`, the “% Inhibition @ 10 uM” value came out at 1.67%.

Consider `CCCS(=O)(=O)c1ncc(Cl)c(C(=O)N(Cc2ccc(C)cc2)C2CCS(=O)(=O)C2)n1` (centres unmarked), for which the “% Inhibition @ 10 uM” value is reported as -4.64%.

`CCOc1ccccc1NC(=O)c1cccs1`: the “% Inhibition @ 10 uM” value is 0.526%.

`Cc1ccc(COc2ccccc2C2C3=C(CCCC3=O)N(CC(=O)O)C3=C2C(=O)CCC3)cc1`: the “% Inhibition @ 10 uM” value is -1.55%.

Regarding `COc1ccc(CCNS(=O)(=O)c2ccc(-c3cc(C)no3)cc2)cc1OC`, the “% Inhibition @ 10 uM” value was 3.14%.

Consider `O=C(Nc1ccc(F)cc1F)c1cccc(Cl)c1`, for which the “% Inhibition @ 10 uM” value is recorded as -3.26%.

For the compound `CC(NC(=O)c1ccc(-c2nn(C)c(=O)c3ccccc23)cc1)c1ccccc1` (centres unmarked), the “% Inhibition @ 10 uM” value was -5.1%.

`CCc1ccc(C2CC(c3cc(OC)c(OC)c(OC)c3)n3ncnc3N2)cc1` (centres unmarked): the “% Inhibition @ 10 uM” value stood at 1.73%.

For the compound `O=C(NCCCc1ccccc1)[C@@H](c1ccccc1)N1Cc2ccccc2C1=O`, the “% Inhibition @ 10 uM” value stood at 1.26%.

As for `CC1=C(C(=O)OCC(C)C)C(c2ccccc2)NC(=O)N1` (centres unmarked), the “% Inhibition @ 10 uM” value stood at 3.18%.

On to `CCC1NC2(C(=O)N(Cc3ccccc3F)c3ccccc32)C2C(=O)N(Cc3ccccc3)C(=O)C12` (centres unmarked), for which the “% Inhibition @ 10 uM” value is given as -3.65%.

Turning to `CCC(=O)Nc1nnc(S(=O)(=O)N(C)Cc2ccc(F)cc2)s1`, the “% Inhibition @ 10 uM” value is recorded as -4.94%.

`Cc1cc(O)c(C2=NCCSC(c3ccsc3)C2)c(=O)o1` (centres unmarked): the “% Inhibition @ 10 uM” value is 5.69%.

For `CC(=O)Nc1ccc(NC(=O)c2ccc(Cl)cc2)cc1`, the “% Inhibition @ 10 uM” value is listed as 3.1%.

`CC1OC(C)C2Cc3ccccc3C2O1` (centres unmarked): the “% Inhibition @ 10 uM” value is given as -9.31%.

Consider `CCOC(=O)N1CCN(C(=O)C2CCN(S(=O)(=O)CC)CC2)CC1`, for which the “% Inhibition @ 10 uM” value amounted to 6.86%.

`CCOC(=O)c1c(NC(=O)COc2cccc(C)c2)sc(C(C)=O)c1C`: the “% Inhibition @ 10 uM” value is 22.5%.

With `Cc1ccc(-c2c(O)c(=O)/c2=N\C2CCC(C)CC2)cc1C` (centres unmarked), the “% Inhibition @ 10 uM” value is recorded as -0.00718%.

Turning to `COCCNC(=O)C1CCN(c2nn3cc(-c4ccc(OC)cc4)nc3s2)CC1`, the “% Inhibition @ 10 uM” value is listed as 5.85%.

Consider `O=C(CSc1nc2sc3c(c2c(=O)n1-c1ccc(F)cc1)CCCC3)N1CCOCC1`, for which the “% Inhibition @ 10 uM” value was -0.968%.

For `CCOCCCNC(=O)c1ccc2nc(N3CCOCC3)sc2c1`, the “% Inhibition @ 10 uM” value worked out at 2.65%.

As to `O=C(Nc1ncc(CN2CCOCC2)s1)C12C[C@H]3C[C@@H](C1)C[C@@H](C2)C3`, the “% Inhibition @ 10 uM” value was -0.0619%.

For `O=C(Nc1ccc(CN2CCOCC2)cc1)c1cccnc1`, the “% Inhibition @ 10 uM” value was determined as 0.709%.

Consider `C=CCN1C(=O)N/C(=C/c2cn(CC(=O)Nc3ccc(C)cc3)c3ccccc23)C1=O`, for which the “% Inhibition @ 10 uM” value is listed as -1.17%.

Take `COc1cc(C2C(C#N)=C(N)Oc3[nH]nc(C)c32)ccc1OCc1ccccc1` (centres unmarked): the “% Inhibition @ 10 uM” value amounted to 4.3%.

Take `CCOc1cc(C2C(C#N)=C(N)OC3=C2C(=O)CC(c2ccccc2)C3)ccc1OC` (centres unmarked): the “% Inhibition @ 10 uM” value was determined as 3.1%.

In the case of `Cc1cccc(C)c1NC(=O)C1(N(C)C(=O)CN2C(=O)c3ccccc3C2=O)CCCC1`, the “% Inhibition @ 10 uM” value is listed as 6.61%.

Take `O=C(O)C1CCCN1C(=O)c1ccc(N2C(=O)C3C4C=CC(C4)C3C2=O)cc1` (centres unmarked): the “% Inhibition @ 10 uM” value is listed as -0.545%.

As for `CCOC(=O)c1c(S(=O)(=O)NC(CC)CN2CCOCC2)c(C)n(C)c1C` (centres unmarked), the “% Inhibition @ 10 uM” value was found to be 2.45%.

As to `CCCCNC(=O)c1ccc2c(c1)c(C)c(C)n2CC`, the “% Inhibition @ 10 uM” value was -6.25%.

`O=C(CNC(=S)N(Cc1ccccc1)Cc1ccccc1F)N1CCC2(CC1)OCCO2`: the “% Inhibition @ 10 uM” value is recorded as -0.406%.

With `Cc1ccc2onc(CNC(=O)NC3CCCC(C)C3C)c2c1` (centres unmarked), the “% Inhibition @ 10 uM” value was -7.1%.

As to `CCOc1cccc(C(=O)Nc2sc(C)c(CC)c2C#N)c1`, the “% Inhibition @ 10 uM” value was found to be 21.2%.

For the compound `Cc1ccc(C2C(C#N)=C(N)OC3=C2C(=O)CCC3)cc1` (centres unmarked), the “% Inhibition @ 10 uM” value is on record as 0.67%.

For the compound `COCCCN1C(=O)/C(=C\c2ccc(Cl)c(Cl)c2)C(C(=O)OC)=C1C`, the “% Inhibition @ 10 uM” value is listed as -3.4%.

Consider `Cc1ccccc1C1C2=C(O)CC(C)(C)CC2=Nc2ncnn21` (centres unmarked), for which the “% Inhibition @ 10 uM” value was -1.62%.

For the compound `O/N=C1\CCCc2c1[nH]c1ccc(Cl)cc21`, the “% Inhibition @ 10 uM” value amounted to 0.247%.

`O=c1n(-c2ccccc2)c(=O)n2n1C1C=CC2C2C=CC21` (centres unmarked): the “% Inhibition @ 10 uM” value amounted to 2.25%.

With `Cc1cccc(C(=O)Nc2ccc(S(=O)(=O)NC3CCCCC3)cc2)c1`, the “% Inhibition @ 10 uM” value was -1.95%.

For the compound `CCC(=O)Nc1c(-c2ccc(C)cc2)nc2cc(C)ccn12`, the “% Inhibition @ 10 uM” value is 1.29%.

For `COc1cccc(C2C=C(c3ccc(Br)s3)Nc3ncnn32)c1OC` (centres unmarked), the “% Inhibition @ 10 uM” value is given as -5.19%.

In the case of `CCOC(=O)N1CC(=O)Nc2ccc(Br)cc2C1c1ccccc1` (centres unmarked), the “% Inhibition @ 10 uM” value stood at 0.0345%.

For `N=c1n(CCN2CCCCC2)c2ccccc2n1CC(=O)c1cccs1`, the “% Inhibition @ 10 uM” value was -5.23%.

As for `Cc1ccccc1CN1C(=O)C(O)(CC(=O)c2ccccc2)c2ccccc21` (centres unmarked), the “% Inhibition @ 10 uM” value is recorded as -1.43%.

In the case of `O=C(c1ccc(COc2ccccc2Cl)o1)N1N=C(C(F)F)CC1(O)C(F)F` (centres unmarked), the “% Inhibition @ 10 uM” value is listed as -1.36%.

With `Cc1cccc(Oc2nc3c(C)cccn3c(=O)c2/C=C(\C#N)C(=O)N2CCOCC2)c1C`, the “% Inhibition @ 10 uM” value came to 3.63%.

Turning to `Cc1c(CCCN)c2ccccc2n1-c1ccccc1`, the “% Inhibition @ 10 uM” value amounted to 1.54%.

Consider `C1=C(c2nc3ccccc3s2)N2CCCCN=C2S1`, for which the “% Inhibition @ 10 uM” value is on record as -3.25%.

As to `COc1cccc(C(=O)/C=C(/Nc2sc3c(c2C#N)CCC3)C(=O)O)c1`, the “% Inhibition @ 10 uM” value is reported as -4.74%.
